For 51 compounds, activation results are on record in PubChem BioAssay AID1346428 (National Center for Advancing Translational Sciences (NCATS), 2018).

Several values for one entry are separate records, joined by “and”; a condition that tells them apart may be missing. Equal entries are not always repeated. About 1,200 (2.5%) of roughly 48,000 compounds were called active. Inconclusive results (about 2%) are left out.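 The calls were made as follows: active = activation of at least 60% and not above a set upper limit (about 1 call in 100 departs from these limits); inconclusive = activation of 40% to 60%, or above that upper limit; inactive = activation under 40%.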 This is one part of the list.

The experiment deals with Probable G-protein coupled receptor 32 (Homo sapiens) (UniProt O75388). The experiment can be described thus: qHTS for Agonists of Human Resolvin D1 Receptor DRV1. Also: 0% is about no effect. As to conditions: CHO-K1 GPR32 beta-arrestin PathHunter luminescence, 90 min; at 76.9 µM; active compounds read high; zero percent set by DMSO-only wells. The essentials: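 Luminescent readout of beta-Gal complementation quantifies ligand-induced beta-arrestin association with GPR32 in CHO-K1 cells; 90 min compound incubation at 37 °C, detection 1 h at room temperature.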
Sequence of UniProt O75388 (O75388 whole entry, looked up): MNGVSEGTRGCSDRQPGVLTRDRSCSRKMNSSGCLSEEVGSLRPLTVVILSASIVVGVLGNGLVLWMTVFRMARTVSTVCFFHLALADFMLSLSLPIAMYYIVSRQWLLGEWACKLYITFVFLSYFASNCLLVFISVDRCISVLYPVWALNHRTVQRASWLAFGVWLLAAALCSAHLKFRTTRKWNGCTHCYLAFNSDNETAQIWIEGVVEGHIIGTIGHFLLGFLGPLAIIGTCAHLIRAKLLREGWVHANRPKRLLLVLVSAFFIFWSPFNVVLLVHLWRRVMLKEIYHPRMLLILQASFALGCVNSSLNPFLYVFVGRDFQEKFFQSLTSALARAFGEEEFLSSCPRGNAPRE
(Quantitative high-throughput screening tests each substance at several concentrations.)
With `CCOc1cc(C2NC(=O)c3c(sc4c3CCN(C)C4)N2)ccc1OC(=O)c1ccc(Br)cc1` (stereo unspecified), the activation was inactive: 6.71%.

With `CCOc1ccc(CNC(=O)C2CCCN(c3nnc(C)c4c(C)n(-c5ccccc5)nc34)C2)cc1` (stereo unspecified), the activation was inactive: 1.41%.

`CCOc1ccc(NC(=O)Cn2cnc3sc(C)c(S(=O)(=O)N4CCN(c5ccccc5OC)CC4)c3c2=O)cc1`: the activation was inactive: -5.41%.

On to `COc1ccc(NC(=O)c2ccco2)cc1NC(=O)C(C)(C)Oc1ccc(Cl)cc1`, for which the activation was inactive: -13.6%.

Regarding `Cc1nn2c(C)c(C(=O)NC(C)c3ccccc3)cnc2c1-c1ccc(F)cc1` (stereo unspecified), the activation is inactive: -4.67%.

For the compound `Cc1cccc(C)c1-n1ncc(C(=O)O)c1C1CCN(C(=O)OC(C)(C)C)CC1`, the activation is inactive: 14.7%.

In the case of `COc1ccc(C)cc1NC(=O)c1cc2c(=O)n3cccc(C)c3nc2s1`, the activation is inactive: 2.37%.

Turning to `CCC(=O)N1CCCc2cc(S(=O)(=O)N3CCC(C(=O)NCc4ccc(F)cc4)CC3)ccc21`, the activation was inactive: 5.66%.

`COc1ccc(Cl)cc1NC(=O)c1cn(C2CCCC2)c(=O)c2c1c1ccccc1n2C`: the activation is inactive: -3.82%.

As for `Cc1cccc(N(CC(=O)Nc2ccccc2C(F)(F)F)S(=O)(=O)c2ccccc2)c1C`, the activation was inactive: -2.07%.

On to `O=C(NCC(c1cccs1)S(=O)(=O)c1ccccc1)c1ccc(C(F)(F)F)cc1` (stereo unspecified), for which the activation is inactive: -6.18%.

Take `COc1ccc(OC)c(C2CC(=O)Oc3c2c(=O)n(C)c2ccccc32)c1` (stereo unspecified): the activation is inactive: 0.96%.

For `O=C(Nc1ccc(F)cc1)c1ccc2c(=O)n3c(nc2c1)CCCCC3`, the activation was inactive: -11.4%.

On to `COCCCNC(=O)CSc1nc2c(sc3ccccc32)c(=O)n1CCc1ccc(OC)c(OC)c1`, for which the activation is inactive: -12.3%.

For `Cc1cc(Cl)ccc1OCC(=O)N(Cc1ccco1)Cc1ccccc1F`, the activation is inactive: -13.4%.

Turning to `COc1ccc(CNC(=O)CSc2ncc3c(n2)-c2ccc(Cl)cc2N(Cc2ccccc2)S3(=O)=O)cc1`, the activation was inactive: 11.7%.

With `CN(C)CCNC(=O)Cn1ccc2cc(S(=O)(=O)N3CCCCCC3)ccc21`, the activation is inactive: 8.99%.

On to `Cc1cccc(Cn2c(-c3cccc(Br)c3)nc3ccccc32)c1`, for which the activation is inactive: -38.4%.

In the case of `COc1ccccc1C(=O)NC1(C(F)(F)F)C(=O)Nc2c1c(=O)[nH]c(=O)n2-c1ccc(F)cc1` (stereo unspecified), the activation was inactive: -7.04%.

Consider `COc1ccc(CNC(=O)CCc2c(C)nc3c(c(C)nn3-c3ccccc3)c2C)cc1`, for which the activation was inactive: 2.44%.

Take `CCOC(=O)c1c(C)n(-c2ccc(OC)cc2)c2ccc(OC(=O)COc3ccccc3)cc12`: the activation is inactive: -15.5%.

Regarding `O=C(Cn1nnnc1-c1ccccc1F)Nc1ccc(OC(F)(F)F)cc1`, the activation is active: 75.1%.

On to `CN1C[C@H]2c3ccccc3Oc3ccc(Cl)cc3[C@@H]2C1`, for which the activation is active: 91.8%.

Turning to `Cc1ccc(-n2ncc3c(Nc4cccc(Cl)c4)ncnc32)c(C)c1`, the activation was inactive: -7.83%.

With `CCN(CC)c1cc(C)c2cc(NC(=O)/C=C/c3cc(OC)c(OC)c(OC)c3)ccc2n1`, the activation is inactive: -17.9%.

For `CC(C)c1nnc(N2C(=O)c3oc4ccccc4c(=O)c3C2c2ccccc2F)s1` (stereo unspecified), the activation is inactive: -2.13%.

Consider `c1ccc([C@H]2CN3CCSC3=N2)cc1`, for which the activation is inactive: -11.7% and inactive: -8.8%.

In the case of `CCc1ccc(CNC(=O)CCc2c(C)nn(-c3ccc(N4CCCC4)nn3)c2C)cc1`, the activation is inactive: -12.9%.

`COc1cc(NC(=O)C2=CC(c3ccc(F)cc3)=NS(=O)(=O)N2C)cc(OC)c1OC`: the activation is inactive: -8.04%.

With `CCN(Cc1ccccc1)C(=O)C1CCN(S(=O)(=O)c2ccc3c(c2)CCCN3C(C)=O)CC1`, the activation is inactive: 0.856%.

Take `O=C(CSc1nccn1Cc1ccc(F)cc1)Nc1nc2ccccc2s1`: the activation was inactive: 10.4%.

`Cc1cc2c(cc1S(=O)(=O)Nc1cccc(C#N)c1)OCC(=O)N2`: the activation is inactive: -2.91%.

Regarding `O=C(Cn1ncc2c3ccccc3n(Cc3ccccc3F)c2c1=O)NCc1ccccc1Cl`, the activation is inactive: -11.6%.

For `Cc1cccc(CC(=O)N2CC(=O)Nc3ccc(Br)cc3C2c2ccc(F)cc2)c1` (stereo unspecified), the activation is inactive: -24%.

Turning to `Cc1coc2c(C)c3oc(=O)c(CCC(=O)NCCc4ccccc4F)c(C)c3cc12`, the activation is inactive: -8.26%.

Consider `CC(C)N(C(=O)CSc1cn(CC(=O)N2CCCCCC2)c2ccccc12)C(C)C`, for which the activation is inactive: -9.42%.

As to `CCOC(=O)c1ccc(NC(=O)Cn2c(=O)cc(C)c3c(C)nn(-c4ccc(CC)cc4)c32)cc1`, the activation was inactive: -6.26%.

On to `COc1ccc(CNC(=O)CN(C)S(=O)(=O)c2ccc3nc(C)sc3c2)cc1`, for which the activation is inactive: -11.9%.

On to `COc1cccc(C(=O)Nc2ccccc2C(=O)OCc2cc(=O)n3c4c(sc3n2)CCCC4)c1`, for which the activation was inactive: -33.9%.

For the compound `N#Cc1ccc(-c2cccs2)nc1SCc1ccc(Br)cc1`, the activation was inactive: -4.3%.

Turning to `COc1ccc(-n2nc(C(=O)N3CCCCC3C)c3c4ccccc4n(C)c3c2=O)cc1Cl` (stereo unspecified), the activation was inactive: -5.47%.

Consider `CCOc1ccc(CCNC(=O)c2cn(-c3ccc(OC)cc3)c(=O)c3ccccc23)cc1OCC`, for which the activation was inactive: -13%.

Take `COc1cccc(/C=C/c2nc(C#N)c(N3CCC(C(N)=O)CC3)o2)c1`: the activation was inactive: 13.8%.

With `COc1ccccc1Nc1sc(C(=O)c2ccc(F)cc2)c(N)c1S(=O)(=O)c1ccc(C)cc1`, the activation is inactive: -2.14%.

On to `CN(Cc1ccccc1)C(=O)c1ccc(CSc2nc3cccnc3n2Cc2ccccc2F)cc1`, for which the activation is inactive: 0.0023%.

As for `COc1ccc(NC(=O)Cn2c(=O)n(CCC(=O)NCC3CCCO3)c(=O)c3cc(OC)c(OC)cc32)cc1` (stereo unspecified), the activation is inactive: -0.562%.

Consider `Cc1cccc(NC(=O)Cn2c(=O)n(CCCCCC(=O)NCc3ccccc3)c(=O)c3sccc32)c1`, for which the activation was inactive: -1.95%.

As to `CCOc1ccc(CNC(=O)C2CCN(C(=O)c3ccc(-n4ccc5ccccc54)s3)CC2)cc1`, the activation was inactive: 10.9%.

Take `COc1ccc(-c2cc3ncc(C)n3c(Nc3ncccc3C(N)=O)n2)cc1OC`: the activation was inactive: -10.8%.

Turning to `CCOC(=O)N1CCN(C(=O)c2ccc3c(c2)N(Cc2ccccc2F)C(=O)c2ccccc2S3(=O)=O)CC1`, the activation is inactive: -8.25%.

As to `O=C(COc1ccccc1)NCC(c1ccc(Cl)cc1)N1CCCCC1` (stereo unspecified), the activation is inactive: -21.4%.
